Measurements published in paper PMC9724675, “POPDC1 scaffolds a complex of adenylyl cyclase 9 and the potassium channel TREK‐1 in heart” (EMBO Reports, 2022).

Molecular target: T1, POPDC1-Myc (Popeye domain-containing protein 1, Myc-tagged) (mouse, UniProt Q9ES83 1-358)
T1 construct: POPDC1 (Bves), mouse; construct described in Froese et al 2012 and Schindler et al 2016b; Mouse is stated for the BiFC constructs, which were made from the previously described tagged constructs; also called Myc-tagged POPDC1; BVES; source: HEK293 or COS-7, transfected, in cells or in lysate
T1 sequence (looked up): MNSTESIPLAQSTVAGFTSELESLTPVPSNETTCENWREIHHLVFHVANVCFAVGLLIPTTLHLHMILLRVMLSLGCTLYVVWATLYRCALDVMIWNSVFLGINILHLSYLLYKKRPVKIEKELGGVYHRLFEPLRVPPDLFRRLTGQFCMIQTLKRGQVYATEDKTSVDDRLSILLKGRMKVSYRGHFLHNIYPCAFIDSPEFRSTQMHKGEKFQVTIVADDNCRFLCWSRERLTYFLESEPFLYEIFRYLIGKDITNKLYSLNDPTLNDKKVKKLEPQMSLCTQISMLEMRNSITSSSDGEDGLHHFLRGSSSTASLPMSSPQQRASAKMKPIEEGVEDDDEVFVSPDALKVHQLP
Test: co-IP; IP-AC assay: HEK293 lysates expressing AC1 or AC8 with or without Myc-tagged POPDC1, immunoprecipitation with anti-MYC, AC activity stimulated with 100 μM calcium and 300 nM calmodulin
Settings: partners not purified

fold Ca2+/calmodulin-stimulated AC activity in the POPDC1 immunoprecipitate over IgG controls: 1.8 ± 0.2 fold
B1: nontagged AC8 (adenylyl cyclase 8) (enzyme)
chain: MELSDVRCLTGSEELYTIHPTPPAGDGRSASRPQRLLWQTAVRHITEQRFIHGHRGGSGSGSGGSGKASDPAGGGPNHHAPQLSGDSALPLYSLGPGERAHSTCGTKVFPERSGSGSASGSGGGGDLGFLHLDCAPSNSDFFLNGGYSYRGVIFPTLRNSFKSRDLERLYQRYFLGQRRKSEVVMNVLDVLTKLTLLVLHLSLASAPMDPLKGILLGFFTGIEVVICALVVVRKDTTSHTYLQYSGVVTWVAMTTQILAAGLGYGLLGDGIGYVLFTLFATYSMLPLPLTWAILAGLGTSLLQVILQVVIPRLAVISINQVVAQAVLFMCMNTAGIFISYLSDRAQRQAFLETRRCVEARLRLETENQRQERLVLSVLPRFVVLEMINDMTNVEDEHLQHQFHRIYIHRYENVSILFADVKGFTNLSTTLSAQELVRMLNELFARFDRLAHEHHCLRIKILGDCYYCVSGLPEPRQDHAHCCVEMGLSMIKTIRYVRSRTKHDVDMRIGIHSGSVLCGVLGLRKWQFDVWSWDVDIANKLESGGIPGRIHISKATLDCLNGDYNVEEGHGKERNEFLRKHNIETYLIKQPEDSLLSLPEDIVKESVSSSDRRNSGATFTEGSWSPELPFDNIVGKQNTLAALTRNSINLLPNHLAQALHVQSGPEEINKRIEHTIDLRSGDKLRREHIKPFSLMFKDSSLEHKYSQMRDEVFKSNLVCAFIVLLFITAIQSLLPSSRVMPMTIQFSILIMLHSALVLITTAEDYKCLPLILRKTCCWINETYLARNVIIFASILINFLGAILNILWCDFDKSIPLKNLTFNSSAVFTDICSYPEYFVFTGVLAMVTCAVFLRLNSVLKLAVLLIMIAIYALLTETVYAGLFLRYDNLNHSGEDFLGTKEVSLLLMAMFLLAVFYHGQQLEYTARLDFLWRVQAKEEINEMKELREHNENMLRNILPSHVARHFLEKDRDNEELYSQSYDAVGVMFASIPGFADFYSQTEMNNQGVECLRLLNEIIADFDELLGEDRFQDIEKIKTIGSTYMAVSGLSPEKQQCEDKWGHLCALADFSLALTESIQEINKHSFNNFELRIGISHGSVVAGVIGAKKPQYDIWGKTVNLASRMDSTGVSGRIQVPEETYLILKDQGFAFDYRGEIYVKGISEQEGKIKTYFLLGRVQPNPFILPPRRLPGQYSLA[sequence of about 20 residues not given]GHYNRRTLLSPSGTEPGAQAEGTDKSDLP
notes: adenylyl cyclase 8 (AC8), Ca2+/calmodulin-stimulated; the plasmid is not described; source: HEK293, transfected, in lysate
